In PubChem BioAssay AID488969 (Vanderbilt High Throughput Screening Facility, 2010):
Over roughly 110,000 compounds, “z-score” has its median near -0.1; the highest 2% begin near 2. The list shows a part of the results.

These compounds were tested against Metabotropic glutamate receptor 8 (Rattus norvegicus) (UniProt P70579) (assay: mGluR8 Gi/Go-coupled signaling modulation – cell-based, rat, thallium flux, HTS, primary screen (AID 488969)). Settings: HEK293 rat mGluR8, GIRK (G protein-gated inwardly rectifying potassium channel) thallium flux, FluoZin2; at 10 µM; stronger effect = higher value; submaximal glutamate (EC20) added with thallium.
UniProt P70579, sequence (P70579 whole entry, looked up): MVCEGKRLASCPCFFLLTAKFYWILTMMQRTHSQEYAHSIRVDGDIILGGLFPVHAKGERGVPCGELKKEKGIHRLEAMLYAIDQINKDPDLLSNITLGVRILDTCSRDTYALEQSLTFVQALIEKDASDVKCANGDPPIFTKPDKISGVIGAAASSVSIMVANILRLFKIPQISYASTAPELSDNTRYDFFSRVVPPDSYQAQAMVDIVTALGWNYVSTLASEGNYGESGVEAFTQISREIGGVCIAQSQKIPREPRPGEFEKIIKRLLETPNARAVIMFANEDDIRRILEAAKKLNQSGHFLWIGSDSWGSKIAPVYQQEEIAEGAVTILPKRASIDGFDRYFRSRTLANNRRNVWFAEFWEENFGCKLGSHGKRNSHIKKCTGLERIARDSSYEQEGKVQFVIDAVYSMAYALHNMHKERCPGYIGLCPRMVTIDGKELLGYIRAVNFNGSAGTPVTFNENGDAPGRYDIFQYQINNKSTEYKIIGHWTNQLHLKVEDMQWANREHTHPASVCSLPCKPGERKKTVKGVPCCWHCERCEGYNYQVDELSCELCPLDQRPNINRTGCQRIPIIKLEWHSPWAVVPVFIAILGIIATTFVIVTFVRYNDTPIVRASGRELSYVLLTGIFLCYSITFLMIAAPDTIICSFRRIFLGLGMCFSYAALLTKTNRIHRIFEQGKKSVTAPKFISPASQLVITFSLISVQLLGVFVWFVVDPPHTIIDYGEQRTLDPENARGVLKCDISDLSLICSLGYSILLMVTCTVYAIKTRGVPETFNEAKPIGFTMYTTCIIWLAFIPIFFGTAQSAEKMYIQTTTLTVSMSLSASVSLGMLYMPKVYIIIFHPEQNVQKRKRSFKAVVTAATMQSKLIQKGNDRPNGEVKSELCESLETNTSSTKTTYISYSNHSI
`c1ccc(Cn2nnnc2CN2CCN(Cc3ccc4c(c3)OCO4)CC2)cc1` showed a z-score of -0.89. With `Fc1cccc(Cn2cc(C(=S)N3CCCCC3)c3ccccc32)c1` the z-score was -0.185. `Cc1nn(CCO)c2c1C(=O)CCC2` gave a z-score of 0.148. `Cc1c(NC(=O)c2ccc3c(c2)OCO3)cccc1-c1nc2ncccc2o1` showed a z-score of -0.533. `CCOC(=O)N1CCN(C(=O)COc2ccc(S(=O)(=O)NC3CCCCC3)cc2C)CC1` gave a z-score of -0.335. `COC(=O)COc1ccc(S(=O)(=O)Nc2ccccc2SC)cc1` showed a z-score of -0.655. `COC(=O)/C(=C\Nc1ccc(Cl)cc1Cl)NC(=O)c1ccccc1` gave a z-score of -0.0888. For `Cc1ccc(NC(=O)/C=C/c2ccc([N+](=O)[O-])s2)c(C)c1`, the z-score was -0.186. For `COc1ccc(S(=O)(=O)N(C)CC(=O)NC2CCCCC2)cc1OC`, the z-score was 0.13. `COc1ccc(OC)c(NC(=O)CNC(=O)Cn2c(C)cc3ccccc3c2=O)c1` gave a z-score of 0.412. `Clc1ccc(CN(CC2CCCO2)C(c2cccs2)c2nnnn2C2CCCC2)cc1` (stereo not given) gave a z-score of -0.908. With `COc1ccc(-c2cn(-c3ccc(C)cc3)c(=O)n2CC(=O)Nc2ccc(OC)c(OC)c2)cc1` the z-score was -0.529. `COC(=O)c1oc2ccc(Cl)cc2c1-n1cccc1` was tested, and the z-score was -0.217. `CC(C)(C)C(=O)Nc1nc(-c2ccccc2)ns1` was tested, and the z-score was -0.358. `C[C@@H](C(=O)NCc1ccccc1)N1C(=O)C2CC=CCC2C1=O` (stereo not given in full) showed a z-score of 0.0335. Compound `C/C(=C\C(=O)c1ccc(F)cc1)Nc1ccc(N2CCOCC2)cc1` has a z-score of 0.159. Work on `O=C(CCN1C(=O)C2C3C=CC(C3)C2C1=O)Nc1ccccc1F` (stereo not given) yielded a z-score of 0.166. `O=C(Oc1ccc(C(=S)N2CCOCC2)cc1Br)c1cc(Cl)ccc1Cl` was tested, and the z-score was 0.018. `COc1ccc(CN2C(=O)CN=C2Nc2ccc(C)cc2C)cc1` showed a z-score of -0.413. Work on `O=C1C(=O)N(O)C2CCCCC2N1O` (stereo not given) yielded a z-score of -0.199. With `CCOC(=O)c1c(C)n(C)c2ccc(O)c(CN(CC)CC)c12` the z-score was -2.05. `COCCn1c(C)cc(C(=O)CSc2nc3ccccc3c(=O)[nH]2)c1C` gave a z-score of -0.655. With `CCOc1cc2[nH]c(=O)n(CCCCCC(=O)NCc3ccco3)c(=O)c2cc1OCC` the z-score was -0.547. In the case of `COc1cc(SC)ccc1C(=O)NCCc1ccccc1`, the z-score was -0.226. `COc1cc2[nH]c(=O)n(CCC(=O)N3CCN(c4cccc(C)c4C)CC3)c(=O)c2cc1OC` was tested, and the z-score was -0.719. `Cc1c(/C=C(\C#N)c2nn(-c3ccccc3)c(N)c2C#N)c2ccccc2n1Cc1ccc(F)cc1` gave a z-score of -0.163. `S=C(NCC1CCCO1)n1nnc2ccccc21` (stereo not given) gave a z-score of -0.00788. In the case of `Cc1ccccc1NC(=S)NC(NC(=O)C(C)(C)C)C(Cl)(Cl)Cl` (stereo not given), the z-score was -0.0313. For `Nc1nc(C(=O)N2CCOCC2)nn1S(=O)(=O)c1ccccc1`, the z-score was 0.534. `C/C(=N\NC(=O)CC1N=C(Cc2ccccc2)NNC1=O)c1ccccc1` (stereo not given) showed a z-score of 0.263. `Cc1ccccc1OCc1nc2ccccc2c(=O)n1NC(=O)c1ccco1` showed a z-score of 0.652. `Cc1nc([N+](=O)[O-])c(Sc2nc3ccccc3[nH]2)n1Cc1ccccc1` showed a z-score of -0.0581. For `COC(=O)c1ccc(C2C(C(C)=O)=C(C)Nc3ncnn32)cc1` (stereo not given), the z-score was 1.05. For `COc1ccc(C2NC(c3ccc(OC)cc3)C(c3ccccc3)C(=O)C2c2ccccc2)cc1` (stereo not given), the z-score was -0.191. `Cc1ccc(OCC(=O)N2CCCc3ccccc32)cc1` showed a z-score of -0.576. In the case of `O=C(NC(Nc1ccc(F)cc1)(C(F)(F)F)C(F)(F)F)c1cccnc1`, the z-score was 0.47. Work on `COC(=O)C1=C(CSc2nncn2C)NC(=O)NC1c1cc(C)ccc1C` (stereo not given) yielded a z-score of -0.757. For `CC1(C)CC(=O)C2=C(C1)N(Cc1ccco1)C(=O)C2(NC(=O)c1ccc(Cl)cc1Cl)C(F)(F)F` (stereo not given), the z-score was -0.289. `CC(C)(C)NC(=O)COC(=O)c1ccccc1Nc1ccc(SC(F)F)cc1` gave a z-score of -0.243. For `O=C(COC(=O)Cc1ccc2c(c1)OCCO2)Nc1ccc(S(=O)(=O)N2CCCC2)cc1`, the z-score was -0.144. Work on `Cc1nnc(NC2=NCCC2)s1` yielded a z-score of 0.619. For `CCOC(=O)CN(C(=O)CNC(=O)c1cccs1)C(C(=O)NC1CCCCC1)c1cccs1` (stereo not given), the z-score was -0.187. Compound `Cn1nc(-c2ccccc2F)c2cc(C(=O)Nc3ccc4c(c3)OCCO4)sc21` has a z-score of -0.17. `Cc1ccc(-n2ncc3c(NCc4ccccc4)ncnc32)cc1` was tested, and the z-score was -0.114. With `O=C(COc1ccc(Cl)cc1)NCc1nnc(SCC(=O)N2CCCCC2)o1` the z-score was 0.791. For `O=C(NCCSc1ccccc1)c1cccnc1`, the z-score was 0.204. With `Cc1ccc(C2NC(=S)NC3=C2C(=O)CC(C)(C)C3)cc1` (stereo not given) the z-score was -0.209. Work on `C/C(=N/NC(=O)c1cn(-c2cccc(C)n2)cn1)c1ccc(C)cc1` yielded a z-score of 1.18. For `O=C(/C=C/c1ccco1)NC(=S)NNC(=O)c1ccco1`, the z-score was 1.53. Compound `Cc1cc(C)c2nc(Cl)c(CN(Cc3ccco3)C(=O)Nc3ccccc3C)cc2c1` has a z-score of -0.885. `Cc1cccc(-n2c(C)cc(/C=C3/C(=N)N4C(c5ccccc5)=CSC4=NC3=O)c2C)c1` showed a z-score of 0.612. With `CCOC(=O)c1c(-c2ccc(C)cc2)csc1NC(=O)CCN1CC(C)OC(C)C1` (stereo not given) the z-score was 0.589. Work on `COC(=O)c1cc(NC(=O)CC2NCCNC2=O)cc(C(=O)OC)c1` (stereo not given) yielded a z-score of 0.176. Compound `Cc1occc1C(=O)NCc1ccc2c(c1)OCO2` has a z-score of -0.3. `COC(=O)c1ccc(OCC(=O)NC(C)(C)C)cc1` showed a z-score of 0.212. `O=C(Cn1c(C(F)(F)F)nc2ccccc21)Nc1ccccc1N1CCOCC1` showed a z-score of -0.26. `CCC(C)NS(=O)(=O)c1ccc(NC(=O)c2ccc([N+](=O)[O-])cc2Cl)cc1` (stereo not given) was tested, and the z-score was 0.0866. In the case of `CC(OC(=O)Cn1c(C(F)(F)F)nc2ccccc21)C(N)=O` (stereo not given), the z-score was -0.166. For `O=S(=O)(c1cc(Cl)ccc1Cl)N1CCN(Cc2ccc3c(c2)OCO3)CC1`, the z-score was -0.0702. Compound `Cc1sc2ncnc(N/N=C/c3ccccc3O)c2c1C` has a z-score of -0.215. `CC(C)CSc1nnc(N)s1` was tested, and the z-score was 0.107. In the case of `COc1ccccc1/C=C/C(=O)N1CCC(c2ccccc2)C1` (stereo not given), the z-score was -0.00988. With `C=CCN(CC=C)CC(=O)Nc1ccc(S(N)(=O)=O)cc1` the z-score was 0.0227. `COc1cc(C)nc(NCc2ccccc2)n1` was tested, and the z-score was 0.0516. Work on `O=c1[nH]c(SCc2ccccc2)nnc1-c1ccccc1` yielded a z-score of -0.0537. `Clc1ccc(CN2CCCCCCC2)cc1` showed a z-score of 0.0189. In the case of `Cc1cc(C)cc(OCc2nnc(SCC(=O)c3ccc(Br)cc3)o2)c1`, the z-score was 0.367. `Cc1nnc(SCCCn2c(N3CCCCC3)nc3c2c(=O)[nH]c(=O)n3C)s1` was tested, and the z-score was 0.119. `CCOc1ccc(-c2nc(N)ncc2Oc2cccc(OC)c2)c(O)c1` was tested, and the z-score was -0.156. Work on `Cc1c(C(=O)OCC(=O)N2CC(C)OC(C)C2)oc2ccc(Br)cc12` (stereo not given) yielded a z-score of -0.32.
